Data as given in PubChem BioAssay (NCATS).
The shares of active, inactive and inconclusive entries below differ from those in the screen. Potencies of inconclusive entries are doubtful fits and often do not repeat. Calls of active or inactive are those of the source. Calls follow the shape of the dose curve; as a rule, active = well fitted curve in the direction sought with a large enough effect; inconclusive = small, poorly fitted or top-dose-only effect, or another doubt; inactive = no such curve, though single readings can be large; an effect the other way counts as inactive or inconclusive.

Tests used:
[1] = P-glycoprotein substrates identified in KB-8-5-11 adenocarcinoma cell line, qHTS therapeutic library screen (AID 1346987); also: nearly all actives have a fitted effect of over 65% in size
Procedure, shortened: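 Steps: plate 500 KB-8-5-11 cells/well in DMEM + 10% FCS (colchicine removed); pin compounds in dose-response; incubate 72 h, 37 degree C, 5% CO2; add CellTiter-Glo, 5 min; read luminescence.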

HaCat = assay: Cytotoxic Profiling of Annotated Libraries Using Quantitative High-Throughput Screening (AID 1296008); settings: Five cell lines viability, CellTiter-Glo ATP luminescence, 48-72 h; max response: active compounds read low; also: nearly all actives have a fitted effect of over 60% in size; as to max response: % is scaled to controls: 0 for no effect and ±100 for the full control effect
Procedure, shortened: (§1)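 Cytotoxicity was measured as CellTiter-Glo ATP luminescence, read after 10 min at room temperature. Compound treatment of the cells lasted 48 or 72 hr at 37 degrees Celsius in a qHTS format.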

KB-3-1 = assay: as above; settings: Five cell lines viability, CellTiter-Glo ATP luminescence, 48-72 h; max response: active compounds read low
Procedure, shortened: as §1

C33A = assay: Primary qHTS to identify gynecologic anti-cancer compounds using libraries of approved drugs and bioactive compounds (AID 1345084); settings: Gynecologic cancer cell panel viability, ATPlite luminescence, 48 h; series mostly up to 57.5 µM; also: nearly all actives have a fitted effect of over 55% in size; as to activity change, negative = cytotoxicity: % is scaled to controls: 0 for no effect and ±100 for the full control effect
Procedure, shortened: (§2)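 Five-concentration response, 48 h; readout is ATP-driven luciferase luminescence.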

CAOV3 = assay: as above; settings: Gynecologic cancer cell panel viability, ATPlite luminescence, 48 h; activity change, negative = cytotoxicity: at 57.5 µM (top of the series)
Procedure, shortened: as §2

CASKI = assay: as above; settings: Gynecologic cancer cell panel viability, ATPlite luminescence, 48 h; series mostly up to 57.5 µM
Procedure, shortened: as §2

Es-2 = assay: as above; settings: Gynecologic cancer cell panel viability, ATPlite luminescence, 48 h; series mostly up to 57.5 µM
Procedure, shortened: as §2

HeLa = assay: as above; settings: Gynecologic cancer cell panel viability, ATPlite luminescence, 48 h; activity change, negative = cytotoxicity: at 57.5 µM (top of the series)
Procedure, shortened: as §2

Hek293T = assay: as above; settings: Gynecologic cancer cell panel viability, ATPlite luminescence, 48 h, control line for the selectivity index; activity change, negative = cytotoxicity: at 57.5 µM (top of the series) unless noted
Procedure, shortened: as §2

JEG-3 = assay: as above; settings: Gynecologic cancer cell panel viability, ATPlite luminescence, 48 h; series mostly up to 57.5 µM
Procedure, shortened: as §2

OV90 = assay: as above; settings: Gynecologic cancer cell panel viability, ATPlite luminescence, 48 h; series mostly up to 57.5 µM
Procedure, shortened: as §2

PA-1 = assay: as above; settings: Gynecologic cancer cell panel viability, ATPlite luminescence, 48 h; series mostly up to 57.5 µM
Procedure, shortened: as §2

SKOV3 = assay: as above; settings: Gynecologic cancer cell panel viability, ATPlite luminescence, 48 h; series mostly up to 57.5 µM
Procedure, shortened: as §2

Tov-21-G = assay: as above; settings: Gynecologic cancer cell panel viability, ATPlite luminescence, 48 h; activity change, negative = cytotoxicity: at 57.5 µM (top of the series) unless noted
Procedure, shortened: as §2

Tov112D = assay: as above; settings: Gynecologic cancer cell panel viability, ATPlite luminescence, 48 h; series mostly up to 57.5 µM
Procedure, shortened: as §2

[2] = Primary fluorescence-based thiol-reactive (MSTI) qHTS assay for identification of artifact compounds. (AID 1845221);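 also: thiol-reactive compounds lower the probe fluorescence signal; nearly all actives have a fitted effect of over 65% in size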
Procedure, shortened: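 In PBS pH 7.4 with 2% DMSO, each compound met 4 uM MSTI for one hour at ambient temperature, shielded from light, before fluorescence detection.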

[3] = Primary qHTS for inhibitors of nuclear receptor binding SET domain protein 2 (NSD2) in an isogenic RCH-ACV NSD2 p.E1099K mutant (9B) (AID 1645876); also: nearly all actives have a fitted effect of over 70% in size
[4] = Primary redox qHTS assay for identification of artifact compounds. (AID 1845223); settings: Amplex Red/HRP redox cycling with DTT, fluorescence; redox activity (% of DA3003): at 53.8 µM (top of the series)
Procedure, shortened: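 Amplex Red (25 uM) and HRP (250 mU/mL) in HBSS, with compounds for 15 min, then 250 uM DTT for 30 min, room temperature, dark. Fluorescence 525/598 nm read; normalized to DMSO and 10 uM DA3003; Hill fit.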

[5] = Primary qHTS for inhibitors of nuclear receptor binding SET domain protein 2 (NSD2) in an RCH-ACV wild type WT cells (2C) (AID 1645877); settings: activity change, negative = cell killing: at 44.9 µM (top of the series) unless noted; also: nearly all actives have a fitted effect of over 70% in size
Potency is read from the fitted curve at half-maximal effect; tags tell the direction and shape of the fitted curve.

| SMILES | Potency [1] | Potency (HaCat) | Potency (KB-3-1) | Potency (C33A) | Potency (CAOV3) | Potency (CASKI) | Potency (Es-2) | Potency (HeLa) | Potency (Hek293T) | Potency (JEG-3) | Potency (OV90) | Potency (PA-1) | Potency (SKOV3) | Potency (Tov-21-G) | Potency (Tov112D) | Potency [2] | max response (KB-3-1) | Potency [3] | Potency [4] | Potency [5] |
| --- | --- | --- | --- | --- | --- | --- | --- | --- | --- | --- | --- | --- | --- | --- | --- | --- | --- | --- | --- | --- |
| CC(C=CC1=C(C)CCCC1(C)C)=CC=CC(C)=CC(=O)Nc1ccc(O)cc1 | active: 24.1 µM | inconclusive: 67.9 µM [inhibitor, single point] | active: 38.2 µM | – | – | – | – | – | – | – | – | – | – | – | – | – | – | – | – | – |
| CCN1CCN(Cc2ccc(NC(=O)Nc3ccc(Oc4cc(NC)ncn4)cc3)cc2C(F)(F)F)CC1 | – | inconclusive: 32.6 µM [inhibitor, partial curve, poor fit] | active: 6.51 µM | inconclusive: 39.8 µM [cytotoxic, single point] | inconclusive: 0.891 µM [rising, full curve, poor fit] | inconclusive: 39.8 µM [cytotoxic, single point] | inconclusive: 35.5 µM [cytotoxic, single point] | inconclusive: 39.8 µM [cytotoxic, single point] | inconclusive: 28.2 µM [cytotoxic, partial curve, poor fit] | inconclusive: 39.8 µM [cytotoxic, single point] | inconclusive: 39.8 µM [cytotoxic, single point] | inconclusive: 31.6 µM [cytotoxic, single point] | inconclusive: 39.8 µM [cytotoxic, single point] | inconclusive: 39.8 µM [cytotoxic, single point] | inconclusive: 35.5 µM [cytotoxic, single point] | – | – | – | – | – |
| CCN1CCN(Cc2ccc(C(=O)Nc3ccc(C)c(Oc4ccc5c(c4)CC(=O)N5)c3)cc2C(F)(F)F)CC1 | inconclusive: 29.1 µM [inhibitor, single point] | inconclusive: 25.9 µM [inhibitor, single point] | inconclusive: 29.1 µM [inhibitor, single point] | – | – | – | – | – | – | – | – | inconclusive: 39.8 µM [cytotoxic, single point] | inconclusive: 39.8 µM [cytotoxic, single point] | – | – | – | – | – | – | – |
| O=C(NNc1nc2cc(F)ccc2n2cccc12)c1cnccn1 | active: 2.31 µM | active: 3.26 µM | inconclusive: 2.59 µM [inhibitor, full curve] | inconclusive: 2.82 µM [cytotoxic, full curve] | inconclusive: 6.31 µM [cytotoxic, single point] | – | – | – | active: 3.55 µM | – | active: 5.01 µM | – | inconclusive: 2.24 µM [cytotoxic, single point] | active: 8.91 µM | – | inconclusive: 2.12 µM [inhibitor, partial curve, poor fit] | – | – | – | – |
| CC(=O)C=C=C1C(C)(C)CC(O[C@@H]2O[C@H](CO)[C@@H](O)[C@H](O)[C@H]2O)CC1(C)O (some centres not stated) | – | inconclusive: 4.04 µM [inhibitor, partial curve, poor fit] | – | – | – | – | – | – | inactive | – | – | – | inconclusive: 0.501 µM [rising, full curve, poor fit] | – | – | inconclusive: 14.7 µM [inhibitor, partial curve] | inactive: 0.592% | – | – | – |
| CCCCNc1ncc(C(=O)NCc2ccc(-n3ccnc3)cc2)c(NC2CCC(O)CC2)n1 (configuration not stated) | inconclusive: 18.4 µM [inhibitor, single point] | active: 23.1 µM | inconclusive: 16.4 µM [inhibitor, single point] | inconclusive: 14.1 µM [cytotoxic, partial curve] | inconclusive: 31.6 µM [cytotoxic, single point] | inconclusive: 31.6 µM [cytotoxic, partial curve, poor fit] | – | inconclusive: 25.1 µM [cytotoxic, single point] | – | inconclusive: 20 µM [cytotoxic, single point] | inconclusive: 25.1 µM [cytotoxic, single point] | inconclusive: 31.6 µM [cytotoxic, single point] | – | inconclusive: 39.8 µM [cytotoxic, single point] | inconclusive: 28.2 µM [cytotoxic, single point] | – | – | – | – | – |
| C=C1C(=O)O[C@@H]2/C=C(\C)C(=O)/C=C/[C@](C)(O)C[C@@H](OC(=O)C(C)C)[C@@H]12 | active: 4.53 µM | active: 2.02 µM | active: 7.18 µM | active: 8.91 µM | active: 2.82 µM | inconclusive: 3.16 µM [cytotoxic, partial curve, poor fit] | active: 3.16 µM | inconclusive: 15.8 µM [cytotoxic, partial curve, poor fit] | active: 4.47 µM | inconclusive: 11.2 µM [cytotoxic, partial curve, poor fit] | inconclusive: 12.6 µM [cytotoxic, single point] | active: 4.47 µM | active: 5.62 µM | – | active: 15.8 µM | inconclusive: 8.26 µM [inhibitor, partial curve] | – | active: 0.401 µM | – | – |
| C=CC(=O)Nc1cc(Nc2nccc(-c3c[nH]c4ccccc34)n2)c(OC)cc1N(C)CCN(C)C | active: 6.51 µM | active: 0.0366 µM | active: 8.2 µM | inconclusive: 39.8 µM [cytotoxic, single point] | active: 28.2 µM | active: 28.2 µM | active: 20 µM | active: 15.8 µM | inconclusive: 6.31 µM [cytotoxic, partial curve, poor fit] | inconclusive: 35.5 µM [cytotoxic, single point] | inconclusive: 11.2 µM [cytotoxic, partial curve, poor fit] | active: 4.47 µM | inconclusive: 39.8 µM [cytotoxic, single point] | inconclusive: 22.4 µM [cytotoxic, partial curve, poor fit] | inconclusive: 25.1 µM [cytotoxic, partial curve] | – | – | – | inconclusive: 9.47 µM [activator, partial curve] | – |
| CC1(C)CC[C@]23CO[C@@]4(CCC5[C@@]6(C)CC[C@H](O[C@@H]7OC[C@H](O[C@@H]8O[C@H](CO)[C@@H](O)[C@H](O)[C@H]8O[C@@H]8OC[C@@H](O)[C@H](O)[C@H]8O)[C@H](O)[C@H]7O[C@@H]7O[C@H](CO)[C@@H](O)[C@H](O)[C@H]7O)[C@@](C)(CO)C6CC[C@@]5(C)[C@]4(C)C[C@H]2O)[C@@H]3C1 (some centres not stated) | inconclusive: 6.93 µM [inhibitor, single point] | inconclusive: 6.93 µM [inhibitor, single point] | inconclusive: 5.51 µM [inhibitor, single point] | inconclusive: 4.47 µM [cytotoxic, single point] | inconclusive: 7.94 µM [cytotoxic, single point] | inconclusive: 11.2 µM [cytotoxic, single point] | inconclusive: 7.08 µM [cytotoxic, single point] | – | inconclusive: 11.2 µM [cytotoxic, single point] | inconclusive: 5.01 µM [cytotoxic, single point] | inconclusive: 6.31 µM [cytotoxic, partial curve, poor fit] | – | inconclusive: 11.2 µM [cytotoxic, single point] | inconclusive: 6.31 µM [cytotoxic, single point] | inconclusive: 11.2 µM [cytotoxic, single point] | – | – | – | inconclusive: 5.05 µM [activator, single point] | – |
| C[C@@H]1COCCN1c1cc(C2(S(C)(=O)=O)CC2)nc(-c2cccc3[nH]ccc23)n1 | – | active: 5.8 µM | active: 2.59 µM | active: 4.47 µM | inconclusive: 28.2 µM [cytotoxic, partial curve, poor fit] | inconclusive: 12.6 µM [cytotoxic, partial curve, poor fit] | – | inconclusive: 11.2 µM [cytotoxic, partial curve, poor fit] | active: 7.94 µM | active: 7.08 µM | inconclusive: 11.2 µM [cytotoxic, partial curve] | active: 11.2 µM | active: 3.16 µM | – | inconclusive: 3.98 µM [cytotoxic, full curve] | – | – | active: 0.515 µM | – | active: 0.459 µM |
| CC(C)(O)/C=C/C(=O)[C@](C)(O)[C@H]1[C@H](O)C[C@@]2(C)[C@@H]3CC=C4[C@@H](C[C@H](O[C@@H]5O[C@H](CO)[C@@H](O)[C@H](O)[C@H]5O)C(=O)C4(C)C)[C@]3(C)C(=O)C[C@]12C | inconclusive: 6.85 µM [inhibitor, single point] | inconclusive: 4.85 µM [inhibitor, partial curve, poor fit] | inconclusive: 9.68 µM [inhibitor, single point] | – | inconclusive: 14.1 µM [cytotoxic, single point] | – | – | – | – | – | – | – | inconclusive: 12.6 µM [cytotoxic, single point] | – | – | inconclusive: 7.07 µM [inhibitor, single point] | – | inconclusive: 8.58 µM [inhibitor, single point] | – | inconclusive: 7.65 µM [inhibitor, single point] |
| CC[C@@H](C)[C@H]1C(=O)O[C@H](C(C)C)C(=O)N(C)[C@@H](C(C)C)C(=O)O[C@H](C(C)C)C(=O)N(C)[C@@H](C(C)C)C(=O)O[C@H](CC(C)C)C(=O)N1C | inconclusive: 9.68 µM [inhibitor, single point] | inconclusive: 8.62 µM [inhibitor, single point] | inconclusive: 9.68 µM [inhibitor, single point] | inconclusive: 7.94 µM [cytotoxic, single point] | inconclusive: 12.6 µM [cytotoxic, single point] | inconclusive: 10 µM [cytotoxic, single point] | inconclusive: 12.6 µM [cytotoxic, single point] | inconclusive: 12.6 µM [cytotoxic, single point] | inconclusive: 11.2 µM [cytotoxic, single point] | – | inconclusive: 12.6 µM [cytotoxic, single point] | inconclusive: 12.6 µM [cytotoxic, single point] | inconclusive: 11.2 µM [cytotoxic, single point] | inconclusive: 12.6 µM [cytotoxic, single point] | inconclusive: 10 µM [cytotoxic, single point] | – | – | active: 5.41 µM | – | – |
